“And” between values parts separate entries of the source, which are not always exact repeats. Identical values can stand only once. Screen size: about 420,000 compounds; about 64,000 (15%) were called active. Inconclusive results, whose numbers are uncertain, are shown with a selection of clear calls. Calls follow the shape of the dose curve; as a rule, active = well fitted inhibition curve with a large enough effect; inconclusive = small, poorly fitted or top-dose-only effect; inactive = flat fitted curve, though single readings scatter. Potencies of inconclusive entries are doubtful fits and often do not repeat.
Assay: qHTS for Inhibitors of human tyrosyl-DNA phosphodiesterase 1 (TDP1): qHTS in cells in absence of CPT; also: nearly all actives have a fitted effect of over 55% in size
Conditions: DT40 Tdp1-/- hTDP1 cells, no CPT, ATP luminescence, 48 h; activity change, negative = growth inhibition: at 46.2 µM (top of the series) unless noted
How it was run: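 Camptothecin absent (DMSO only). Human TDP1-complemented DT40 knockout cells, 400 cells/well, 37 °C for minimum 48 hr; ATP measured via CellTiter-Glo, 30 min dark incubation, luminescence.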
% is scaled to controls: 0 for no effect and ±100 for the full control effect; potency is read from the fitted curve at half-maximal effect; tags tell the direction and shape of the fitted curve.

SMILES | Potency | activity change, negative = growth inhibition
COc1ccc(-c2nc3ccc(C(=O)NCC(OC)OC)cc3nc2-c2ccc(OC)cc2)cc1 | active: 8.2 µM | –
CC(O)c1nc2ccccc2n1C1CCCCC1 (configuration not stated) | inconclusive: 29.1 µM [inhibitor, single point] | –
COCc1cc(C)nc2sc3c(c12)NC(c1ccc(NC(C)=O)cc1)N(c1ccc(C)cc1)C3=O (configuration not stated) | inconclusive: 20.6 µM [inhibitor, single point] | –
Cc1ccc(NC(c2ccccc2)c2nc3ccccc3[nH]c2=O)cc1 (configuration not stated) | inconclusive: 20.6 µM [inhibitor, single point] | –
CCCOc1ccc(F)cc1-c1cc(C(=O)NCc2ccccc2OC)[nH]n1 | inconclusive: 29.1 µM [inhibitor, single point] | –
CCOC(=O)C[C@H]1c2ccc(C(F)(F)F)cc2S(=O)(=O)N1c1ccccc1 | inconclusive: 35.5 µM [inhibitor, single point] and inconclusive: 14.6 µM [inhibitor, single point] | –
CC(C)CN(CC(C)C)S(=O)(=O)N1CCC(C(=O)NCc2ccccn2)CC1 | – | inconclusive: -31.2% [inhibitor]
CCOc1cc(/C=N/NC(N)=O)cc(Br)c1OCC(=O)Nc1ccccc1C | inconclusive: 29.1 µM [inhibitor, single point] | –
CCN(c1ccccc1)c1nnc(NC(=O)Nc2cccc(C(F)(F)F)c2)s1 | – | inactive: -24%
O=[N+]([O-])c1ccc(Oc2cccc(C(F)(F)F)c2)nc1 | inconclusive: 25.9 µM [inhibitor, single point] | –
CCOc1ccc(N(Cc2cc3ccc(C)cc3[nH]c2=O)C(=O)COC)cc1 | inconclusive: 16.4 µM [inhibitor, partial curve, poor fit] | –
O=c1c2ccccc2n(Cc2cccc(Cl)c2)c(=O)n1CCc1ccccc1 | inconclusive: 23.1 µM [inhibitor, single point] | –
Cc1cccc(S(=O)(=O)NC(=O)C2(C)CCN2C(=O)Cc2ccc(-c3ccccc3)cc2)c1 (configuration not stated) | inconclusive: 29.1 µM [inhibitor, single point] | –
O=C(Nc1nnc(C2CC2)s1)c1cc(-c2ccccc2)nn1-c1ccccc1 | inconclusive: 29.1 µM [inhibitor, single point] | –
NC(=O)COC(=O)CC1CC2CCC1C2 (configuration not stated) | – | inactive: 2.34%
CCOC(=O)N1CCN(C(=O)c2cn(CC(C)C)c(=O)c3c2c2ccccc2n3C)CC1 | inconclusive: 13 µM [inhibitor, partial curve, poor fit] | –
Nc1ccccc1C(=O)N(Cc1ccccc1)Cc1ccccc1 | inconclusive: 16.4 µM [inhibitor, single point] | –
